Where a chain is given by its changes, count along the chain named. In names and notes the source's numbering stands. No constants are given. Whether binding was seen depends on the method and setting. For part of these data: Binding seen in cells or lysates may run through a third protein. Some entries that bind do so weakly or less than the wild type. For part of these data: Sequences can lack the tags named with a protein.
T1: Cdc15 SH3 (aa843–927) (S. pombe) (UniProt Q09822)
T1 sequence: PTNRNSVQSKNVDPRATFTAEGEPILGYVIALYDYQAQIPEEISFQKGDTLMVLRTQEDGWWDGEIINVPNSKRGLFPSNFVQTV

T2: Cdc15 (S. pombe (endogenous in S. pombe cells)) (UniProt Q09822)
T2 sequence: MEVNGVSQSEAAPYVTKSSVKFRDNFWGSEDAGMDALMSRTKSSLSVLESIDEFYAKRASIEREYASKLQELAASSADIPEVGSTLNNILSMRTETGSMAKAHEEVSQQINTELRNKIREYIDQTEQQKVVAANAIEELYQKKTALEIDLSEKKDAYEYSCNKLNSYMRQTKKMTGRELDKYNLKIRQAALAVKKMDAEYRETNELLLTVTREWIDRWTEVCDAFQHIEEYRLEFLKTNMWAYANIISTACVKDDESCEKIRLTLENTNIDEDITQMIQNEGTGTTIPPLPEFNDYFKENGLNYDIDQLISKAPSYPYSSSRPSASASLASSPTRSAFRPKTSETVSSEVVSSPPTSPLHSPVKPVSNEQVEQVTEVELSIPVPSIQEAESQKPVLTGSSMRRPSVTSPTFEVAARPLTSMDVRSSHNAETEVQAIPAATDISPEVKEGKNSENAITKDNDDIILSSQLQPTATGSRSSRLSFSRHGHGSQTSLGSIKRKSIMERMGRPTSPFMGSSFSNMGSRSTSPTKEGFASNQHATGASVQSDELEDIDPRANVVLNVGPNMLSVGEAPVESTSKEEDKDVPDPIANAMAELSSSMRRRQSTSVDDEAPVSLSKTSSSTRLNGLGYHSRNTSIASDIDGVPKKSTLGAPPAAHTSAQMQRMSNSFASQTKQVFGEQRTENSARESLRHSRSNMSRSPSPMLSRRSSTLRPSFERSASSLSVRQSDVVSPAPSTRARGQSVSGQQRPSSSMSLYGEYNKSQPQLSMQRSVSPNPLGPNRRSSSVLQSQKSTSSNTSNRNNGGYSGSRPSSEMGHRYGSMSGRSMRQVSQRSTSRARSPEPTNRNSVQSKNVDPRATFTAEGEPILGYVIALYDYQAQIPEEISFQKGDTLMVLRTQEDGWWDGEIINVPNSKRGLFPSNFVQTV

T3: Fic1-FLAG3 (S. pombe) (UniProt O94701)
T3 sequence: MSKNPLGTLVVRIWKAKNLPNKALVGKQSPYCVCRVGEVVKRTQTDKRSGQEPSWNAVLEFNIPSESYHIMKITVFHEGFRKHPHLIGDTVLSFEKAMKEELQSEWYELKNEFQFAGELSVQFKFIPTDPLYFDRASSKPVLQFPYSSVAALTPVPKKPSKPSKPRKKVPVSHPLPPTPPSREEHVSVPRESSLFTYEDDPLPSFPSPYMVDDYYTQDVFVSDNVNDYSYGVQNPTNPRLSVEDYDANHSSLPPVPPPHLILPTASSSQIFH

T4: full-length Fic1 (two-hybrid fusion) (S. pombe) (UniProt O94701)
T4 sequence: T3 sequence

B1: wild-type Fic1(aa190–269) fragment (domain or fragment, UniProt O94701 190-269)
chain: RESSLFTYEDDPLPSFPSPYMVDDYYTQDVFVSDNVNDYSYGVQNPTNPRLSVEDYDANHSSLPPVPPPHLILPTASSSQ
B2: Fic1-FLAG3 (protein, UniProt O94701 1-272)
chain: T3 sequence
B3: S. pombe Cyk3 (protein, UniProt O14302 1-886)
chain: MSIPKQLPCMVRALYAWPGEREGDLKFTEGDLIECLSIGDGKWWIGRHINTNTQGIFPSNFVHCLDIPTVRPGSSMSRTSASSFRYSSPQKSSIDTPITSSDQGLTPDLVGSSNALNKPTRESDSLKHQKSHPMLNSLGSSLSLKKSVSRPPSSMSRTNLDVSSRWDNTADNDSQIDAQDLSRSTPSPLRSAMENVLQSLNAMGKKSFSRANSPLLRLTKSTTTSKETDFIPVPPAHGSTSMTSRSKLDDSTDNSSKPRTSLQPGESPMKSSRDISRKPSMASSVLSPSDYFPQHRRFQSAPAPIPRPVSTLIPLTQVRTTASNVIKPRPQTTERPSTAQSFRKGGGFLKKTFKKLLRRGSSKRKPSLQPTPPVSYPAHNVPQKGVRPASPHTLKSVKDDLKRTKTYTKAEFAAKREEIFNKLSMPVYEPLKDLSECIGNVLADGEPVQFSVGTNIHNMNFSAIDKQIRSIIPQRVQVSPAVLAKNYLAPGQTTALAQMRAVFIYISERITFTNQTLDNDELRTSTQVISEGQGTPFEVALLVKEMLQALDLWCEVIEGYLKSPDDIYYTRDININHAWNVVTFDNEVRLIDASFASPTHPQQALKSSSSNDFYFLMKPNECIFTHVPENPDQQFIMPDLSMPIVMALPWVSSVYFTLGLKLRKFNTSILHLNDLEVLQIEFLAPKDIECVAEVDALSALAPTADVSQCYKYTLTQAFWETPDIRVMRVKAVMPANNRAAVLRIYAGRLGVSSPVRTAPHPMAMSLPFVHHGKNKALEFVTRHPVPHCPSVDLYINSPQCGTLHSGVEYKFNVSAYACQPSTSISNTRLAIQTPTGNIVRLREERSGNGVIFFSLSLTINETGEYRALILAEKIGRWVVYATWQAV
B4: Cyk3 SH3 (aa1–59) (domain or fragment, UniProt O14302 1-59)
chain: MSIPKQLPCMVRALYAWPGEREGDLKFTEGDLIECLSIGDGKWWIGRHINTNTQGIFPS
B5: Fic1(aa190–269) P257A fragment (domain or fragment, UniProt O94701 190-269)
chain: B1 chain with P68A
B6: Fic1-P257A-FLAG3 (protein, UniProt O94701 1-272)
chain: T3 sequence with P257A

Legend:
[1] = molecular target: T1, Cdc15 SH3 (aa843–927) (S. pombe); assay: two-hybrid; S. cerevisiae PJ69-4A co-transformed with bait and prey plasmids; interaction judged by growth on selective media lacking histidine and adenine
[2] = molecular target: T2, Cdc15 (S. pombe (endogenous in S. pombe cells)); assay: co-IP; anti-Cdc15 and anti-FLAG immunoprecipitates from S. pombe lysates (NP40 lysis buffer), blotted with anti-Cdc15 and/or anti-FLAG; cdc25-22 cells arrested in G2, nda3-KM311 cells arrested in prometaphase
Fic1-FLAG3 (S. pombe) = molecular target: T3, Fic1-FLAG3 (S. pombe); assay: co-IP; anti-FLAG and anti-V5 immunoprecipitates from prometaphase-arrested S. pombe cells (NP40 lysis buffer), blotted with anti-FLAG and/or anti-V5
[3] = molecular target: T4, full-length Fic1 (two-hybrid fusion) (S. pombe); assay: two-hybrid; S. cerevisiae PJ69-4A co-transformed with bait and prey plasmids; interaction judged by growth on selective media lacking histidine and adenine

| Binder | binding [1] | binding [2] | other results |
| --- | --- | --- | --- |
| B1 | binds | – | – |
| B2 | – | binds | – |
| B3 | – | – | binding (Fic1-FLAG3 (S. pombe)): binds |
| B4 | – | – | binding [3]: binds |
| B5 | no binding | – | – |
| B6 | – | no binding | – |

Reference: PMC3475658
